The supplement of paper PMC4604168 (melanoma cell lines)
The other results are listed elsewhere or left out. Repeats are few or missing, and single values can be far off.

Experiments:
Assay in all cases: cell count relative to DMSO control; melanoma cells; higher = more viable cells
Settings in all cases: library dose: standard library concentration; 72 h
G361 = test system: G361
IPC-298 = test system: IPC-298
IST-MEL1 = test system: IST-MEL1
LB2518-MEL = test system: LB2518-MEL
LOXIMVI = test system: LOXIMVI
MEL-HO = test system: MEL-HO
MZ2-MEL = test system: MZ2-MEL
MeWo = test system: MeWo
RPMI7951 = test system: RPMI7951
RVH-421 = test system: RVH-421
SkMel28 = test system: SkMel28
SkMel2 = test system: SkMel2
SkMel30 = test system: SkMel30
SkMel5 = test system: SkMel5
UACC257 = test system: UACC257
UACC62 = test system: UACC62
WM115 = test system: WM115
WM1716 = test system: WM1716
WM1745 = test system: WM1745
WM3526 = test system: WM3526
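Note: cells treated in 1,536-well plates, then fixed and DAPI-stained, with nuclei counted from automated high-throughput microscope images.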

Row | Compound | cell count (G361) [%] | cell count (IPC-298) [%] | cell count (IST-MEL1) [%] | cell count (LB2518-MEL) [%] | cell count (LOXIMVI) [%] | cell count (MEL-HO) [%] | cell count (MZ2-MEL) [%] | cell count (MeWo) [%] | cell count (RPMI7951) [%] | cell count (RVH-421) [%] | cell count (SkMel28) [%] | cell count (SkMel2) [%] | cell count (SkMel30) [%] | cell count (SkMel5) [%] | cell count (UACC257) [%] | cell count (UACC62) [%] | cell count (WM115) [%] | cell count (WM1716) [%] | cell count (WM1745) [%] | cell count (WM3526) [%]
1 | Cn1cnc2c(F)c(Nc3ccc(Br)cc3Cl)c(C(=O)NOCCO)cc21 [selumetinib] + C[As](C)SC[C@H](NC(=O)CC[C@H](N)C(=O)O)C(=O)NCC(=O)O [Darinaparsin] (first compound 0.075 µM, partner dose 2 µM) | 56.6 | 49.9 | 83.5 | 47.3 | 96.9 | 83.9 | 71.4 | 58.7 | 181 | 72.9 | 72.1 | 46.4 | 60.3 | 61.9 | 109 | 70.1 | 81 | 64.4 | 77.2 | 69.2
2 | O=C(Nc1cccc(Cl)c1)Nc1ncc(CCNc2ncnc3ccsc23)s1 + O=C(Oc1ccc([N+](=O)[O-])cc1)N1CCC(C(O)(c2ccc3c(c2)OCO3)c2ccc3c(c2)OCO3)CC1 [JZL184] (first compound 0.004 µM, partner dose 5 µM) | 57.5 | 56.4 | 57.8 | 95.2 | 81.6 | 65.1 | 59.7 | 45.6 | 40.2 | 83.9 | 37.7 | 65.4 | 86.4 | 68.7 | 66.3 | 55.3 | 29.7 | 50.6 | 35.1 | 42.9
3 | O=c1[nH]nc(Sc2ncc([N+](=O)[O-])s2)n1-c1ccc2c(c1)OCCO2 + C[As](C)SC[C@H](NC(=O)CC[C@H](N)C(=O)O)C(=O)NCC(=O)O [Darinaparsin] (first compound 1 µM, partner dose 2 µM) | 81.6 | 88.9 | 88.2 | 88.5 | 69.1 | 78.1 | 82.5 | 62.9 | 115 | 92.2 | 73.1 | 88 | 85.1 | 61.3 | 77.9 | 52.4 | 57.7 | 58.2 | 79.9 | 66
4 | Cc1cc(N2CCOCC2)cc2[nH]c(-c3c(NC[C@@H](O)c4cccc(Cl)c4)cc[nH]c3=O)nc12 + O=C(Oc1ccc([N+](=O)[O-])cc1)N1CCC(C(O)(c2ccc3c(c2)OCO3)c2ccc3c(c2)OCO3)CC1 [JZL184] (first compound 1 µM, partner dose 5 µM) | 71.6 | 89.1 | 90 | 108 | 75.1 | 92 | 98.5 | 62.3 | 70.2 | 83.8 | 106 | 99.8 | 86.7 | 65.3 | 99.9 | 85.5 | 106 | 92.3 | 46.1 | 67.7
5 | O=C(Oc1ccc([N+](=O)[O-])cc1)N1CCC(C(O)(c2ccc3c(c2)OCO3)c2ccc3c(c2)OCO3)CC1 + CCCCCCCCCCCC1=C(O)C(=O)C=C(O)C1=O [Embelin] (first compound 5 µM, partner dose 6 µM) | 60.9 | 90 | 60.2 | 99.1 | 84.8 | 73.5 | 96.8 | 96.4 | 65 | 61.9 | 135 | 93.3 | 89.8 | 91.3 | 85.7 | 94.1 | 93.1 | 98.2 | 75.9 | 88.2
6 | COc1cc2c(Oc3ccc4[nH]c(C)cc4c3F)ncnc2cc1OCCCN1CCCC1 [cediranib] + O=C(Oc1ccc([N+](=O)[O-])cc1)N1CCC(C(O)(c2ccc3c(c2)OCO3)c2ccc3c(c2)OCO3)CC1 [JZL184] (first compound 2 µM, partner dose 5 µM) | 103 | 110 | 108 | 93.1 | 83.1 | 106 | 77 | 97.1 | 75.9 | 92.4 | 100 | 104 | 78.5 | 94.3 | 85.7 | 82.9 | 102 | 86.8 | 68.2 | 68.5
7 | CS(=O)(=O)c1ccc(C(=O)Nc2ccc(Cl)c(-c3ccccn3)c2)c(Cl)c1 [vismodegib] + N.N.[Cl][Pt][Cl] [cisplatin] (first compound 5 µM, partner dose 8 µM) | 95.1 | 95.5 | 93.3 | 109 | 76 | 83.4 | 107 | 106 | 120 | 84 | 87.2 | 140 | 94 | 96.8 | 96.3 | 81.7 | 110 | 94.2 | 103 | 87.8
8 | CO[C@@H]1[C@H](N(C)C(=O)c2ccccc2)C[C@H]2O[C@]1(C)n1c3ccccc3c3c4c(c5c6ccccc6n2c5c31)C(=O)NC4 [Midostaurin] + Cc1cc(SCc2sc(-c3ccc(C(F)(F)F)c(F)c3)nc2C)ccc1OCC(=O)O [GW0742] (first compound 0.4 µM, partner dose 10 µM) | 39.7 | 43.3 | 69.5 | 55.9 | 49.8 | 64.5 | 39.2 | 48.5 | 42.5 | 42.5 | 30 | 34.2 | 46.6 | 42.8 | 50.1 | 54.4 | 35.7 | 25.9 | 27.5 | 56.5
9 | COc1ccc2c(c1)CCC1C2CCC2(C)C(NCCCCCCN3C(=O)C=CC3=O)CCC12 (stereo not given) + Cc1cc(SCc2sc(-c3ccc(C(F)(F)F)c(F)c3)nc2C)ccc1OCC(=O)O [GW0742] (first compound 2 µM, partner dose 10 µM) | 91.1 | 79.2 | 90 | 118 | 143 | 98.6 | 74.7 | 59.3 | 22.4 | 77.7 | 81.9 | 93.2 | 87.1 | 72 | 88.5 | 76.8 | 91.8 | 74.1 | 95.1 | 101
10 | O=C(Nc1ccccc1)c1cc([N+](=O)[O-])ccc1Cl + O=C(Oc1ccc([N+](=O)[O-])cc1)N1CCC(C(O)(c2ccc3c(c2)OCO3)c2ccc3c(c2)OCO3)CC1 [JZL184] (first compound 10 µM, partner dose 5 µM) | 95.6 | 121 | 124 | 89.1 | 105 | 95.9 | 82.2 | 86.1 | 89.1 | 104 | 59.8 | 91.3 | 100 | 87.4 | 76.8 | 75.4 | 85.6 | 100 | 83.7 | 86.3
11 | NC(=O)Nc1cc(-c2cccc(F)c2)sc1C(=O)N[C@H]1CCCNC1 + Cc1cc(SCc2sc(-c3ccc(C(F)(F)F)c(F)c3)nc2C)ccc1OCC(=O)O [GW0742] (first compound 0.1 µM, partner dose 10 µM) | 110 | 101 | 91.3 | 53.3 | 112 | 99 | 91.8 | 82.3 | 45.3 | 128 | 40.4 | 88.9 | 79.6 | 82.8 | 96.1 | 72.6 | 71.8 | 73.5 | 66.7 | 68.8
12 | Cc1cc(SCc2sc(-c3ccc(C(F)(F)F)c(F)c3)nc2C)ccc1OCC(=O)O + O=C1NC(=O)/C(=C/c2ccc(-c3ccc(F)cc3O)o2)S1 [AS252424] (first compound 10 µM, partner dose 5 µM) | 79.4 | 88.3 | 95.4 | 85.3 | 97 | 77.5 | 89.8 | 81 | 83.5 | 85.3 | 89.9 | 78 | 81.5 | 96.1 | 78.3 | 111 | 76.1 | 95.8 | 84.8 | 83.2
13 | N#CC[C@H](C1CCCC1)n1cc(-c2ncnc3[nH]ccc23)cn1 [ruxolitinib] + C[As](C)SC[C@H](NC(=O)CC[C@H](N)C(=O)O)C(=O)NCC(=O)O [Darinaparsin] (first compound 5 µM, partner dose 2 µM) | 78.3 | 85.3 | 80.2 | 104 | 102 | 80.1 | 73.4 | 77.7 | 62.3 | 66 | 72.1 | 86.1 | 94.3 | 41 | 74 | 66.1 | 57.8 | 62.8 | 70.3 | 63.4
14 | COC(=O)c1sccc1S(=O)(=O)Nc1ccc(Nc2ccccc2)cc1OC + C/C(O)=C(\C#N)C(=O)Nc1cc(Br)ccc1Br [LFM-A13] (first compound 5 µM, partner dose 10 µM) | 101 | 104 | 106 | 89.4 | 131 | 103 | 76.3 | 114 | 78.6 | 87.5 | 88.1 | 103 | 85.6 | 110 | 108 | 103 | 88.5 | 91.3 | 89.4 | 103
15 | C/C(O)=C(\C#N)C(=O)Nc1cc(Br)ccc1Br + CCCCCCCCCCCC1=C(O)C(=O)C=C(O)C1=O [Embelin] (first compound 10 µM, partner dose 6 µM) | 83.5 | 71.1 | 73.6 | 80.6 | 87.1 | 83 | 77.7 | 88.4 | 80.8 | 81 | 71.4 | 96.6 | 86.8 | 99.4 | 76.9 | 80.5 | 77.5 | 88 | 92.1 | 93.8
16 | O=C(/C=C/c1cccnc1)NCCCCC1CCN(C(=O)c2ccccc2)CC1 + C[As](C)SC[C@H](NC(=O)CC[C@H](N)C(=O)O)C(=O)NCC(=O)O [Darinaparsin] (first compound 0.05 µM, partner dose 2 µM) | 3.06 | 21.8 | 52.9 | 46.5 | 74.5 | 34.4 | 19.5 | 68.9 | 93.6 | 41 | 78.6 | 10.1 | 86.4 | 54.5 | 107 | 66 | 73.9 | 61.8 | 102 | 64
17 | NC(=O)c1ccc(N(C(N)=O)c2c(F)cccc2F)nc1-c1ccc(F)cc1F + N.N.[Cl][Pt][Cl] [cisplatin] (first compound 2 µM, partner dose 8 µM) | 103 | 104 | 109 | 98.8 | 105 | 88.4 | 108 | 104 | 97.3 | 74.6 | 107 | 113 | 106 | 93.2 | 85.3 | 114 | 117 | 93.1 | 77.9 | 81.3
18 | O=C(O)c1ccc(-c2c[nH]c3ncc(-c4ccccc4)cc23)cc1C1CCCC1 + O=C(Oc1ccc([N+](=O)[O-])cc1)N1CCC(C(O)(c2ccc3c(c2)OCO3)c2ccc3c(c2)OCO3)CC1 [JZL184] (first compound 0.8 µM, partner dose 5 µM) | 66.9 | 79.5 | 86.9 | 130 | 93.9 | 84.1 | 73 | 75.6 | 110 | 92.6 | 70.7 | 78.8 | 97.7 | 85.1 | 79.6 | 94.3 | 82.3 | 89.9 | 87 | 75.3
